{"source": "the supplement of paper PMC3334620", "note": "The full ranking holds about 33,000 sequences; the median of “E-score (-0.5 to 0.5)” is about -0.016, and the highest 2% start at about 0.32. The list shows a part of the results."}
{"molecular_target": "T1, Stp1 (UniProt B3LFK1)", "T1 sequence": "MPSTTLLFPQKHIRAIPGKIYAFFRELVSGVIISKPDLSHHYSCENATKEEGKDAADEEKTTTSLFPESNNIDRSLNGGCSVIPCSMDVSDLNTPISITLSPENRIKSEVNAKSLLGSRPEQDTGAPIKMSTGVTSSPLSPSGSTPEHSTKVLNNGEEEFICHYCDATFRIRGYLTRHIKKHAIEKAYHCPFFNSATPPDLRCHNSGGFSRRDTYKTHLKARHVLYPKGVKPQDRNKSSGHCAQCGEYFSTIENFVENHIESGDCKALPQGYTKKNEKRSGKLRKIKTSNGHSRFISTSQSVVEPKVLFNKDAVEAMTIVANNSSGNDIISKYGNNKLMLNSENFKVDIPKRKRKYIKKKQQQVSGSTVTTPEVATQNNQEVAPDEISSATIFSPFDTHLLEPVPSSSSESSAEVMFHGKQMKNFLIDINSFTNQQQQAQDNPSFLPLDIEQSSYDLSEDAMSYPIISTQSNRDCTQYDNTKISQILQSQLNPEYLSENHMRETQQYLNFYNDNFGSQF", "assay": "PBM E-score (8-mer binding enrichment) (E-score (-0.5 to 0.5)); higher = stronger / more preferred TF binding; most listed sequences are background and not binding sites", "settings": "protein concentration: 200 nM; construct: GST-full length", "procedure,_shortened": "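Detection of bound protein used fluorescent anti-GST, with scans normalised by masliner. The proteins were GST-tagged yeast transcription factors applied at about 100-200 nM to universal all-10-mer Agilent arrays made double-stranded by primer extension. Each ungapped eight-base word, pooled with its reverse complement, was scored with an E-score from the Universal PBM Analysis Suite.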"}
{"sequence": "ATATTGAG", "PBM E-score": 0.168}
{"sequence": "AAGCTAAC", "PBM E-score": 0.0708}
{"sequence": "CTCCCTGA", "PBM E-score": -0.353}
{"sequence": "GTACCAGA", "PBM E-score": -0.0954}
{"sequence": "CAAATATC", "PBM E-score": 0.183}
{"sequence": "CGACTGAC", "PBM E-score": -0.186}
{"sequence": "GATAGCTA", "PBM E-score": -0.215}
{"sequence": "CCCGTACA", "PBM E-score": -0.0395}
{"sequence": "ACGCTTCT", "PBM E-score": -0.0533}
{"sequence": "CAATCTTC", "PBM E-score": 0.184}
{"sequence": "GAGCTGGA", "PBM E-score": -0.135}
{"sequence": "GCCAACAC", "PBM E-score": 0.0248}
{"sequence": "GTGCAGTA", "PBM E-score": -0.142}
{"sequence": "ATACGCAG", "PBM E-score": -0.137}
{"sequence": "CACGCCCC", "PBM E-score": -0.11}
{"sequence": "ATCACTCC", "PBM E-score": -0.218}
{"sequence": "ATTCCCCC", "PBM E-score": -0.382}
{"sequence": "ATCTCGTG", "PBM E-score": -0.0713}
{"sequence": "TGGTTTAA", "PBM E-score": 0.142}
{"sequence": "ACTCAAGA", "PBM E-score": -0.0476}
{"sequence": "CTGCACAC", "PBM E-score": -0.14}
{"sequence": "ATATTTTC", "PBM E-score": 0.224}
{"sequence": "ACGCTGTC", "PBM E-score": -0.238}
{"sequence": "AAGGCCTC", "PBM E-score": -0.092}
{"sequence": "CTACGAGC", "PBM E-score": -0.0657}
{"sequence": "CCTAGTCG", "PBM E-score": 0.0105}
{"sequence": "CTGGGCCC", "PBM E-score": -0.317}
{"sequence": "AGGTTGTC", "PBM E-score": -0.179}
{"sequence": "GTTTGCAA", "PBM E-score": 0.15}
{"sequence": "CGACGCTC", "PBM E-score": -0.0466}
{"sequence": "ATCTCTGC", "PBM E-score": 0.151}
{"sequence": "AGTAAATA", "PBM E-score": 0.182}
{"sequence": "AGATAGCG", "PBM E-score": -0.298}
{"sequence": "AACGACCG", "PBM E-score": -0.273}
{"sequence": "AACAATGT", "PBM E-score": 0.00785}
{"sequence": "ATGGCTTG", "PBM E-score": -0.0553}
{"sequence": "ATTTACTG", "PBM E-score": 0.105}
{"sequence": "TAACGCTA", "PBM E-score": -0.0977}
{"sequence": "AACCTGTG", "PBM E-score": -0.298}
{"sequence": "AATTGGGA", "PBM E-score": -0.0189}
{"sequence": "AATGCCCC", "PBM E-score": 0.0145}
{"sequence": "ACACTAGT", "PBM E-score": -0.0671}
{"sequence": "CGATTCGA", "PBM E-score": 0.132}
{"sequence": "CCGCGCAA", "PBM E-score": 0.184}
{"sequence": "TCATGCGA", "PBM E-score": -0.00545}
{"sequence": "CGAGGCAG", "PBM E-score": 0.12}
{"sequence": "ATTTCAAC", "PBM E-score": 0.0251}
{"sequence": "ATTTCGCG", "PBM E-score": 0.177}
{"sequence": "GGAAACTA", "PBM E-score": -0.133}
{"sequence": "AACTCTGC", "PBM E-score": -0.178}
{"sequence": "AAGTTGGG", "PBM E-score": -0.188}
{"sequence": "CAGGGAGA", "PBM E-score": -0.163}
{"sequence": "ACGACGGA", "PBM E-score": 0.123}
{"sequence": "TACCTCTA", "PBM E-score": -0.0991}
{"sequence": "CTCCGAGA", "PBM E-score": -0.102}
{"sequence": "CATTGCTC", "PBM E-score": 0.0826}
{"sequence": "GAAAATAA", "PBM E-score": 0.161}
{"sequence": "GAGACCCA", "PBM E-score": -0.232}
{"sequence": "ACCAGGTG", "PBM E-score": -0.227}
{"sequence": "AACTAAGC", "PBM E-score": 0.0727}
{"sequence": "GTTCATTA", "PBM E-score": 0.143}
{"sequence": "GTTTAGAA", "PBM E-score": 0.00314}
{"sequence": "GGCCCGCC", "PBM E-score": -0.256}
{"sequence": "CAGTCTTA", "PBM E-score": 0.0126}
{"sequence": "CTGAGATC", "PBM E-score": -0.163}
{"sequence": "AGAAGGAC", "PBM E-score": -0.124}
{"sequence": "ATCTGAGC", "PBM E-score": 0.112}
{"sequence": "GAAAACTC", "PBM E-score": -0.0692}
{"sequence": "ATTCGTTC", "PBM E-score": 0.211}
{"sequence": "AGTTGAGC", "PBM E-score": -0.204}
{"sequence": "AGAAGGTA", "PBM E-score": 0.00924}
{"sequence": "AAGTCGAG", "PBM E-score": -0.0912}
{"sequence": "CTGGCGAA", "PBM E-score": -0.0308}
{"sequence": "CCACAGGG", "PBM E-score": -0.133}
{"sequence": "CGATGTCC", "PBM E-score": -0.0557}
{"sequence": "AAAATGCT", "PBM E-score": 0.164}
{"sequence": "ATCAGTGA", "PBM E-score": -0.0262}
{"sequence": "GGAGTTAA", "PBM E-score": 0.0322}
{"sequence": "CCTATGAC", "PBM E-score": -0.14}
{"sequence": "CGTGGTCC", "PBM E-score": -0.166}
{"sequence": "CTGACACA", "PBM E-score": 0.026}
{"sequence": "CACTGTAA", "PBM E-score": 0.0786}
{"sequence": "ATGTTCAG", "PBM E-score": -0.203}
{"sequence": "ACAAGAGT", "PBM E-score": -0.257}
{"sequence": "ATAAGAAG", "PBM E-score": 0.168}
{"sequence": "ATCCACGA", "PBM E-score": 0.0578}
